Measured values as given in the supplement of paper PMC8728848.
Some of the results follow.

Legend:
Test in all cases: glycan array binding signal (z-score within array); higher = stronger binding
Conditions in all cases: glycan notation: IUPAC condensed, linker removed
[1] = molecular target: Gal(b1-3)GalNAc(b1-3)Gal(a1-4)Gal(b1-4)Glc
Summary of the method: (§1)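 Columns mapping to the same glycan were averaged after glycan names were converted to IUPAC-condensed notation. The data come from 3228 arrays in the Consortium for Functional Glycomics database, limited to those with an available protein sequence. Binding is reported as a within-array Z-score averaged across arrays of one protein sequence and across linkers.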

[2] = molecular target: Gal(b1-3)GalNAc(b1-4)Gal(b1-4)Glc
Summary of the method: as §1

[3] = molecular target: Gal(b1-3)GalNAc(b1-4)[Neu5Ac(a2-3)]Gal(b1-4)Glc
Summary of the method: as §1

Gal(b1-3)GlcNAc = molecular target: Gal(b1-3)GlcNAc
Summary of the method: as §1

[4] = molecular target: Gal(b1-3)GlcNAc(a1-3)Gal(b1-4)GlcNAc
Summary of the method: as §1

[5] = molecular target: Gal(b1-3)GlcNAc(a1-6)Gal(b1-4)GlcNAc
Summary of the method: as §1

Gal(b1-3)GlcNAc(b1-2)Man = molecular target: Gal(b1-3)GlcNAc(b1-2)Man
Summary of the method: as §1

[6] = molecular target: Gal(b1-3)GlcNAc(b1-2)Man(a1-3)[Gal(b1-3)GlcNAc(b1-2)Man(a1-6)]Man(b1-4)GlcNAc(b1-4)GlcNAc
Summary of the method: as §1

[7] = molecular target: Gal(b1-3)GlcNAc(b1-2)Man(a1-3)[Gal(b1-3)GlcNAc(b1-2)Man(a1-6)]Man(b1-4)GlcNAc(b1-4)[Fuc(a1-6)]GlcNAc
Summary of the method: as §1

[8] = molecular target: Gal(b1-3)GlcNAc(b1-2)Man(a1-3)[GlcNAc(b1-4)][Gal(b1-3)GlcNAc(b1-2)Man(a1-6)]Man(b1-4)GlcNAc(b1-4)GlcNAc
Summary of the method: as §1

[9] = molecular target: Gal(b1-3)GlcNAc(b1-2)[Gal(b1-3)GlcNAc(b1-6)]Man(a1-6)[Gal(b1-3)GlcNAc(b1-2)Man(a1-3)]Man(b1-4)GlcNAc(b1-4)GlcNAc
Summary of the method: as §1

[10] = molecular target: Gal(b1-3)GlcNAc(b1-3)Gal(b1-3)GlcNAc
Summary of the method: as §1

[11] = molecular target: Gal(b1-3)GlcNAc(b1-3)Gal(b1-4)Glc
Summary of the method: as §1

[12] = molecular target: Gal(b1-3)GlcNAc(b1-3)Gal(b1-4)GlcNAc
Summary of the method: as §1

[13] = molecular target: Gal(b1-3)GlcNAc(b1-3)Gal(b1-4)GlcNAc(b1-2)Man(a1-3)[Gal(b1-3)GlcNAc(b1-3)Gal(b1-4)GlcNAc(b1-2)Man(a1-6)]Man(b1-4)GlcNAc(b1-4)GlcNAc
Summary of the method: as §1

[14] = molecular target: Gal(b1-3)GlcNAc(b1-3)Gal(b1-4)GlcNAc(b1-2)[Gal(b1-3)GlcNAc(b1-3)Gal(b1-4)GlcNAc(b1-6)]Man(a1-6)[Gal(b1-3)GlcNAc(b1-3)Gal(b1-4)GlcNAc(b1-2)Man(a1-3)]Man(b1-4)GlcNAc(b1-4)[Fuc(a1-6)]GlcNAc
Summary of the method: as §1

[15] = molecular target: Gal(b1-3)GlcNAc(b1-3)Gal(b1-4)GlcNAc(b1-3)Gal(b1-4)GlcNAc(b1-2)[Gal(b1-3)GlcNAc(b1-3)Gal(b1-4)GlcNAc(b1-3)Gal(b1-4)GlcNAc(b1-6)]Man(a1-6)[Gal(b1-3)GlcNAc(b1-3)Gal(b1-4)GlcNAc(b1-3)Gal(b1-4)GlcNAc(b1-2)Man(a1-3)]Man(b1-4)GlcNAc(b1-4)[Fuc(a1-6)]GlcNAc
Summary of the method: as §1

[16] = molecular target: Gal(b1-3)GlcNAc(b1-3)Gal(b1-4)GlcNAc(b1-6)[Gal(b1-3)GlcNAc(b1-3)]Gal(b1-4)Glc
Summary of the method: as §1

[17] = molecular target: Gal(b1-3)GlcNAc(b1-3)Gal(b1-4)[Fuc(a1-3)]GlcNAc
Summary of the method: as §1

[18] = molecular target: Gal(b1-3)GlcNAc(b1-3)Gal(b1-4)[Fuc(a1-3)]GlcNAc(b1-6)[Gal(b1-3)GlcNAc(b1-3)]Gal(b1-4)Glc
Summary of the method: as §1

[19] = molecular target: Gal(b1-3)GlcNAc(b1-3)GalNAc
Summary of the method: as §1

[20] = molecular target: Gal(b1-3)GlcNAc(b1-6)Gal(b1-4)GlcNAc
Summary of the method: as §1

[21] = molecular target: Gal(b1-3)GlcNAc(b1-6)GalNAc
Summary of the method: as §1

[22] = molecular target: Gal(b1-3)GlcNAc(b1-6)[Gal(b1-3)]GalNAc
Summary of the method: as §1

Gal(b1-3)GlcNAc6S = molecular target: Gal(b1-3)GlcNAc6S
Summary of the method: as §1

[23] = molecular target: Gal(b1-3)[Fuc(a1-4)]GlcNAc
Summary of the method: as §1

[24] = molecular target: Gal(b1-3)[Fuc(a1-4)]GlcNAc(b1-2)Man
Summary of the method: as §1

[25] = molecular target: Gal(b1-3)[Fuc(a1-4)]GlcNAc(b1-2)Man(a1-3)[Gal(b1-3)[Fuc(a1-4)]GlcNAc(b1-2)Man(a1-6)]Man(b1-4)GlcNAc(b1-4)GlcNAc
Summary of the method: as §1

[26] = molecular target: Gal(b1-3)[Fuc(a1-4)]GlcNAc(b1-2)Man(a1-3)[Gal(b1-3)[Fuc(a1-4)]GlcNAc(b1-2)Man(a1-6)]Man(b1-4)GlcNAc(b1-4)[Fuc(a1-6)]GlcNAc
Summary of the method: as §1

[27] = molecular target: Gal(b1-3)[Fuc(a1-4)]GlcNAc(b1-3)Gal(b1-3)[Fuc(a1-4)]GlcNAc
Summary of the method: as §1

[28] = molecular target: Gal(b1-3)[Fuc(a1-4)]GlcNAc(b1-3)Gal(b1-4)GlcNAc
Summary of the method: as §1

[29] = molecular target: Gal(b1-3)[Fuc(a1-4)]GlcNAc(b1-3)Gal(b1-4)[Fuc(a1-3)]GlcNAc
Summary of the method: as §1

[30] = molecular target: Gal(b1-3)[Fuc(a1-4)]GlcNAc(b1-6)GalNAc
Summary of the method: as §1

[31] = molecular target: Gal(b1-3)[GlcNAc(b1-6)]GalNAc
Summary of the method: as §1

[32] = molecular target: Gal(b1-3)[Neu5Ac(a2-6)]GalNAc
Summary of the method: as §1

[33] = molecular target: Gal(b1-3)[Neu5Ac(a2-6)]GlcNAc(b1-4)Gal(b1-4)Glc
Summary of the method: as §1

[34] = molecular target: Gal(b1-3)[Neu5Ac(a2-6)]GlcNAc(b1-6)Gal(b1-4)Glc
Summary of the method: as §1

[35] = molecular target: Gal(b1-3)[Neu5Ac(b2-6)]GalNAc
Summary of the method: as §1

Gal(b1-4)Gal = molecular target: Gal(b1-4)Gal
Summary of the method: as §1

[36] = molecular target: Gal(b1-4)GalNAc(a1-3)[Fuc(a1-2)]Gal(b1-4)GlcNAc
Summary of the method: as §1

[37] = molecular target: Gal(b1-4)GalNAc(b1-3)[Fuc(a1-2)]Gal(b1-4)GlcNAc
Summary of the method: as §1

Gal(b1-4)Glc = molecular target: Gal(b1-4)Glc
Summary of the method: as §1

Gal(b1-4)Glc6S = molecular target: Gal(b1-4)Glc6S
Summary of the method: as §1

Gal(b1-4)GlcNAc = molecular target: Gal(b1-4)GlcNAc
Summary of the method: as §1

[38] = molecular target: Gal(b1-4)GlcNAc(a1-6)Gal(b1-4)GlcNAc
Summary of the method: as §1

B1: PA-IL (Pseudomonas aeruginosa), Q05097 (protein)
chain: MAWKGEVLANNEAGQVTSIIYNPGDVITIVAAGWASYGPTQKWGPQGDREHPDQGLICHDAFCGALVMKIGNSGTIPVNTGLFRWVAPNNVQGAITLIYNDVPGTYGNNSGSFSVNIGKDQS
[1]
  glycan array binding signal (z-score): -0.228
[2]
  glycan array binding signal (z-score): -0.225
[3]
  glycan array binding signal (z-score): -0.238
Gal(b1-3)GlcNAc
  glycan array binding signal (z-score): -0.168
[4]
  glycan array binding signal (z-score): -0.241
[5]
  glycan array binding signal (z-score): -0.242
Gal(b1-3)GlcNAc(b1-2)Man
  glycan array binding signal (z-score): -0.232
[6]
  glycan array binding signal (z-score): -0.193
[7]
  glycan array binding signal (z-score): -0.222
[8]
  glycan array binding signal (z-score): -0.22
[9]
  glycan array binding signal (z-score): -0.229
[10]
  glycan array binding signal (z-score): -0.224
[11]
  glycan array binding signal (z-score): -0.228
[12]
  glycan array binding signal (z-score): -0.232
[13]
  glycan array binding signal (z-score): -0.224
[14]
  glycan array binding signal (z-score): -0.145
[15]
  glycan array binding signal (z-score): -0.143
[16]
  glycan array binding signal (z-score): -0.221
[17]
  glycan array binding signal (z-score): -0.236
[18]
  glycan array binding signal (z-score): -0.229
[19]
  glycan array binding signal (z-score): -0.213
[20]
  glycan array binding signal (z-score): -0.235
[21]
  glycan array binding signal (z-score): -0.228
[22]
  glycan array binding signal (z-score): -0.232
Gal(b1-3)GlcNAc6S
  glycan array binding signal (z-score): -0.229
[23]
  glycan array binding signal (z-score): -0.228
[24]
  glycan array binding signal (z-score): -0.219
[25]
  glycan array binding signal (z-score): -0.224
[26]
  glycan array binding signal (z-score): -0.195
[27]
  glycan array binding signal (z-score): -0.217
[28]
  glycan array binding signal (z-score): -0.221
[29]
  glycan array binding signal (z-score): -0.228
[30]
  glycan array binding signal (z-score): -0.215
[31]
  glycan array binding signal (z-score): -0.232
[32]
  glycan array binding signal (z-score): -0.232
[33]
  glycan array binding signal (z-score): -0.226
[34]
  glycan array binding signal (z-score): -0.223
[35]
  glycan array binding signal (z-score): -0.229
Gal(b1-4)Gal
  glycan array binding signal (z-score): -0.217
[36]
  glycan array binding signal (z-score): -0.23
[37]
  glycan array binding signal (z-score): -0.235
Gal(b1-4)Glc
  glycan array binding signal (z-score): -0.221
Gal(b1-4)Glc6S
  glycan array binding signal (z-score): -0.22
Gal(b1-4)GlcNAc
  glycan array binding signal (z-score): -0.204
[38]
  glycan array binding signal (z-score): -0.235
